Measured values as given in publication PMC4336329 (PLoS ONE, 2015).
About 2,200 (0.71%) of roughly 310,000 compounds showed an effect of 50% or more. Effects have a minus sign here. Some of the results follow.

biological target: human ether-à-go-go-related gene (hERG) potassium channel (human, UniProt Q12809); test: primary screen, population patch clamp on CHO cells stably expressing hERG
Sequence (Q12809 whole entry, looked up): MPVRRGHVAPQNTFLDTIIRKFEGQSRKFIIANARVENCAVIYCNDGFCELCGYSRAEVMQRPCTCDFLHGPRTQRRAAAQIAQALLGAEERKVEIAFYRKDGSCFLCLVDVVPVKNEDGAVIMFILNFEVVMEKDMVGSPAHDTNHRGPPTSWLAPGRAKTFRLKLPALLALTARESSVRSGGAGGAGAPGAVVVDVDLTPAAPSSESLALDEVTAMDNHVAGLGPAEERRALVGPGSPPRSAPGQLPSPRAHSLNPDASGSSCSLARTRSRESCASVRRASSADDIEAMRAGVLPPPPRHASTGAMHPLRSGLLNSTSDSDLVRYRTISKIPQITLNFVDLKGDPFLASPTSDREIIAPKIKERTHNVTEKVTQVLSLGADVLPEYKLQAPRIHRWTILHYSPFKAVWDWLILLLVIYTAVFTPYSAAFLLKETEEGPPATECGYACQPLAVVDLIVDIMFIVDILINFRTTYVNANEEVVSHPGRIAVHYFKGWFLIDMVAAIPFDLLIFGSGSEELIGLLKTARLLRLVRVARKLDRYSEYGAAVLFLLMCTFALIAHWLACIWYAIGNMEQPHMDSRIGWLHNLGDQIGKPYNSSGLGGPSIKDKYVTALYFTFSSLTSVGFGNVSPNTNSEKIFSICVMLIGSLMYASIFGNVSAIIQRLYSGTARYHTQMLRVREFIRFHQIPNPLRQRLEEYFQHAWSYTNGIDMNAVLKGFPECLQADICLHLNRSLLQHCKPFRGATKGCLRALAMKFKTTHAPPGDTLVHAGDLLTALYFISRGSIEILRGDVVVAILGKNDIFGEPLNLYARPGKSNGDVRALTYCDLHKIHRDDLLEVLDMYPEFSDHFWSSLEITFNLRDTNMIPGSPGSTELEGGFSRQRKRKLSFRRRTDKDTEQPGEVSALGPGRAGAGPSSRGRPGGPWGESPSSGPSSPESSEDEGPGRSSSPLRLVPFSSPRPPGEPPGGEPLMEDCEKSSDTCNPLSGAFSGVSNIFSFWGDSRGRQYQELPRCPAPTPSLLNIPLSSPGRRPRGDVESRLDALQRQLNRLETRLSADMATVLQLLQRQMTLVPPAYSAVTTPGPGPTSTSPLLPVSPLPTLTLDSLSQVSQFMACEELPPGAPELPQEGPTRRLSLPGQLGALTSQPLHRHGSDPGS

First: CCOC(=O)N1CCN(C(=O)c2cc(OC)cc(OC)c2)CC1
Second: CCOC(=O)N1CCN(c2c(NCC3CCN(Cc4cccc(C)c4)CC3)c(=O)c2=O)CC1
The “hERG current change (%, negative = inhibition) at 1uM” value of the first is lower: 5.19% for the first, 6.52% for the second.

Going from `COCCn1c(C)cc(C(=O)COC(=O)/C=C/c2c(C)nn(C3CCS(=O)(=O)C3)c2Cl)c1C` (centres unmarked) to `COC(=O)C1=C(C)N(C2CCCCC2)C(=O)/C1=C\c1cccs1`, the “hERG current change (%, negative = inhibition) at 1uM” value rises from 0.17% to 10.5%.

Compared with `COc1cccc2cc(C(C)N(CCCN3CCOCC3)C(=O)Nc3ccccc3)oc12` (centres unmarked), `O=C1CC(c2ccccc2)CC(O)=C1C=NCCN1CCN(C(=O)Nc2ccccc2)CC1` (centres unmarked) is lower in “hERG current change (%, negative = inhibition) at 1uM” value: 5.29% for the first, -9.19% for the second.

First: CCOC(=O)c1cn(CC)c2cc(N3CCN(C)CC3)c(F)cc2c1=O
Second: Cc1ccc(S(=O)(=O)N2CCN(c3ccc(C(F)(F)F)cc3[N+](=O)[O-])CC2)cc1
The “hERG current change (%, negative = inhibition) at 1uM” value of the first is higher: 12.6% for the first, 2.51% for the second.

Going from `Cc1cc(C(=O)Nc2ccc3ccccc3c2)c(C)o1` to `Cc1cc(C(=O)Nc2ccc(Cl)cc2)c(C)n1-c1ccccc1`, the “hERG current change (%, negative = inhibition) at 1uM” value rises from 7.59% to 9.67%.

First: COC(=O)c1ccc(N(C(=O)CNC(=O)c2ccco2)C(C(=O)NCC2CCCO2)c2ccc(OC)c(OC)c2)cc1 (centres unmarked)
Second: COc1ccc(CC(=O)NNC(=O)c2ccoc2C)cc1OC
The “hERG current change (%, negative = inhibition) at 1uM” value of the first is higher: 13.3% for the first, 6.03% for the second.

Compared with `O=C(NCc1ccccn1)c1cc(-c2ccccc2Cl)nc2ccccc12`, `O=C(NNc1nc2ccccc2s1)c1ccccc1F` is higher in “hERG current change (%, negative = inhibition) at 1uM” value: 6.9% for the first, 7.39% for the second.

Compared with `O=C(c1sccc1-c1ccccc1)N1CCN(S(=O)(=O)c2ccccc2F)CC1`, `O=C(Cc1c(F)cccc1Cl)N1CCN(S(=O)(=O)c2cccc(F)c2)CC1` is higher in “hERG current change (%, negative = inhibition) at 1uM” value: -15.4% for the first, 8.38% for the second.

First: Nc1cc(=O)[nH]c(=O)n1-c1ccc(Cl)cc1
Second: S=C1NC(c2ccccc2)=NCN1c1ccc(Br)cc1
The “hERG current change (%, negative = inhibition) at 1uM” value of the first is higher: 19.2% for the first, 15.2% for the second.

First: Cc1cc(OC(C)C(=O)NCc2ccncc2)c2c3c(c(=O)oc2c1)CCC3 (centres unmarked)
Second: Cc1c(OC(C)C(=O)NCC2CCC(C(=O)O)CC2)ccc2c3c(c(=O)oc12)CCCC3 (centres unmarked)
The “hERG current change (%, negative = inhibition) at 1uM” value of the first is lower: 10.5% for the first, 12.7% for the second.

First: COc1cc2ccccc2cc1C(=O)N(CCN(C)C)c1nc2c(OC)ccc(OC)c2s1.Cl
Second: COc1ccc(-n2c(SC(C)C(=O)Nc3ncc(Cl)cc3Cl)nc3ccccc32)cc1 (centres unmarked)
The “hERG current change (%, negative = inhibition) at 1uM” value of the first is higher: 14% for the first, 8.24% for the second.

First: CCC(CC)C(=O)c1c[nH]c(C(=O)NCc2ccccc2OC)c1
Second: CCOC(=O)CNC(=O)N1c2ccccc2Sc2ccccc21
The “hERG current change (%, negative = inhibition) at 1uM” value of the first is higher: 10% for the first, 9.47% for the second.

Compared with `CC(C)c1ccc(NC(=O)C(c2ccccc2)N2CC(=O)Nc3ccccc32)cc1` (centres unmarked), `Cc1c(NC(=O)COC(=O)CSc2ccc([N+](=O)[O-])cc2)c(=O)n(-c2ccccc2)n1C` is higher in “hERG current change (%, negative = inhibition) at 1uM” value: 13% for the first, 13.1% for the second.

Going from `O=S(=O)(Nc1ccncc1Cl)c1cccc(Cl)c1Cl` to `Cc1cccc(C)c1NS(=O)(=O)c1cc2c3c(c1)CCN3C(=O)CC2`, the “hERG current change (%, negative = inhibition) at 1uM” value falls from 15.2% to -0.436%.

First: CC(C)=CCN1CCN(Cc2cnc(N3CCCC3)s2)CC1CCO (centres unmarked)
Second: COc1ccc(N2CCN(C3CCCN(C(=O)CSC)C3)CC2)cc1 (centres unmarked)
The “hERG current change (%, negative = inhibition) at 1uM” value of the first is higher: 16.5% for the first, 13.5% for the second.

Going from `Cc1cc2nc(C(F)(F)F)cc(-c3cccs3)n2n1` to `C=CCn1c(O)c(C(C)=Nc2cccc(C(F)(F)F)c2)c(=O)[nH]c1=O`, the “hERG current change (%, negative = inhibition) at 1uM” value falls from 14.7% to 3.24%.

Going from `O=C(NCc1ccc(F)cc1)C(=O)NCC1OCCN1S(=O)(=O)c1cccs1` (centres unmarked) to `Cc1ccnc(NC(=O)CCC(=O)N(CC(=O)NCc2ccc(F)cc2)c2cccc(F)c2)c1`, the “hERG current change (%, negative = inhibition) at 1uM” value rises from 4.54% to 5.95%.

Going from `CCc1ccc(N2CC(C(=O)OCC(=O)Nc3ccccc3C)CC2=O)cc1` (centres unmarked) to `O=C(CN1CCCc2ccccc21)NCCc1ccc(Cl)cc1`, the “hERG current change (%, negative = inhibition) at 1uM” value falls from 11.7% to 0.996%.

Going from `COc1ccc(CCNC(=O)c2ccc3c(c2)S(=O)(=O)N=C2CCCCCN23)cc1` to `CCCC(C(=O)NC1CCCC1)N(Cc1ccc(F)cc1)C(=O)c1snc(C(N)=O)c1N` (centres unmarked), the “hERG current change (%, negative = inhibition) at 1uM” value falls from -6.9% to -12.5%.

First: N#C/C(=C(\O)c1ccco1)c1ccccn1
Second: c1ccc(-n2nnc3ccccc32)nc1
The “hERG current change (%, negative = inhibition) at 1uM” value of the first is lower: 4.24% for the first, 10.6% for the second.

First: N#Cc1ccc(CSc2nnc(NC(=O)CCc3nc4ccccc4c(=O)[nH]3)s2)cc1
Second: CCOC(=O)C1=C(C)Nc2nc(SCc3cccnc3)nn2C1c1ccc(OC)cc1 (centres unmarked)
The “hERG current change (%, negative = inhibition) at 1uM” value of the first is higher: 17.3% for the first, 4.77% for the second.

Going from `Cc1ccc(S(=O)(=O)N(C)c2ccc(OCC(=O)NCc3ccco3)cc2)cc1` to `O=C(/C=C/c1ccccc1)NCCc1ccccc1`, the “hERG current change (%, negative = inhibition) at 1uM” value rises from -10.8% to 9.78%.

`CCCCC(CC)COC(=O)c1ccccc1C(=O)OCC(CC)CCCC` (centres unmarked) and `CC1(C)Cc2ccccc2C(=NCCCC(=O)O)N1` are the same in “hERG current change (%, negative = inhibition) at 1uM” value: 11.4% for the first, 11.4% for the second.

Compared with `Cc1cc(C)n(CCC(=O)N2CCN(S(=O)(=O)c3ccccc3)CC2)n1`, `COc1cccc(N=Nc2c(=O)[nH]n3c(C)cc(C)nc23)c1` is lower in “hERG current change (%, negative = inhibition) at 1uM” value: 15.1% for the first, 1.81% for the second.

Compared with `COc1ccc(Cl)cc1NC(=O)CN(C)C(=O)CCC(=O)c1cc(C)sc1C`, `CCNc1nc(NCC)nc(N/N=C/c2ccc(O)c(O)c2)n1` is lower in “hERG current change (%, negative = inhibition) at 1uM” value: 9.57% for the first, 5.39% for the second.

Going from `C=CCN(C(=O)c1csnn1)C(C(=O)NC1CCCC1)c1ccc(F)cc1` (centres unmarked) to `OCCCNC(=S)Nc1ccc2nccnc2c1`, the “hERG current change (%, negative = inhibition) at 1uM” value falls from 10.4% to 5.82%.

Going from `C/C(=N\Nc1ccccn1)c1ccc2c(c1)OCO2` to `S=c1[nH]cnc2sc(Nc3ccccc3)nc12`, the “hERG current change (%, negative = inhibition) at 1uM” value rises from 3.76% to 18%.

First: C[C@H]1CC[C@H]2NCCN[C@H]2C1
Second: COc1cccc(C2CC(c3c(F)cccc3Cl)n3nc(N)nc3N2)c1 (centres unmarked)
The “hERG current change (%, negative = inhibition) at 1uM” value of the first is higher: 9.98% for the first, 4.54% for the second.
